Experimental data: PubChem BioAssay AID1476 (National Center for Advancing Translational Sciences (NCATS), 2009)
In all, about 200,000 compounds went through this assay and about 4,500 (2.2%) were called active. Inconclusive means that the source gave no clear call. Such entries were picked first, then a sample of the others. The call rests on the fitted dose curve; in most records, active means well fitted inhibition curve with a large enough effect; inconclusive means small, poorly fitted or top-dose-only effect, or effect the other way; inactive means flat fitted curve, though single readings scatter. A potency beside an inconclusive call is a rough fit, not a confirmed value.
Further: nearly all actives have a fitted effect of over 40% in size.
Potency means the concentration at half of the fitted maximal effect; tags describe the fitted curve by direction and shape.
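Wherever max response, negative = inhibition is given: plate controls were enzyme without inhibitor for no effect and buffer without enzyme for full effect.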

These compounds were tested against Cruzipain (Trypanosoma cruzi) (UniProt P25779) (assay: qHTS Assay for Promiscuous and Specific Inhibitors of Cruzain (without detergent)). Conditions: purified cruzain, Z-FR-AMC fluorescence, no detergent.
UniProt P25779, sequence (P25779 whole entry, looked up): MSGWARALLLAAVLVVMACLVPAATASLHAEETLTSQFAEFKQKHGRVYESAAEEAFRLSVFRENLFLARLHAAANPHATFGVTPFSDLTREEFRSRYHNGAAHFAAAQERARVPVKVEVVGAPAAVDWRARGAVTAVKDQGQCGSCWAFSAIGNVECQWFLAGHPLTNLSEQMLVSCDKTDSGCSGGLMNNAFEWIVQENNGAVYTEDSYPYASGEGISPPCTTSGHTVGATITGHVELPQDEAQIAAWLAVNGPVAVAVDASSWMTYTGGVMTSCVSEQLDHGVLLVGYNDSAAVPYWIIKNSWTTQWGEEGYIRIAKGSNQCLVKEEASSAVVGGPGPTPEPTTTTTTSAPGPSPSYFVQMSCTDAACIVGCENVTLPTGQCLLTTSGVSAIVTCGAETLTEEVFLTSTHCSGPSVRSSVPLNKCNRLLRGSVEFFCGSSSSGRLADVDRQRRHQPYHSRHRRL
How it was run: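 Purified cruzain at 1.5 nM, pre-incubated 15 min with compound at room temperature in 100 mM sodium acetate pH 5.5, 5 mM DTT, 0.00005% Triton X-100. Reaction started with 2 uM Z-FR-AMC; AMC fluorescence increase over 60 s gives rate.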
With CCOC(=O)CSc1nc2ccccc2c(=O)n1CCN1CCOCC1 the max response, negative = inhibition was inactive: -4.52%. With O=S(=O)(Cc1ccccc1)N1CCn2c(nc3ccccc32)C1 the max response, negative = inhibition was inactive: -20%. In the case of COc1cc2c(cc1OC)[C@@H]1C(=O)c3ccc4c(c3O[C@@H]1CO2)C=CC(C)(C)O4, the Potency is reported as inconclusive: 39.8 µM [activator, single point]. In the case of COc1ccc(NC(=O)c2sc3nc4c(cc3c2N)CCCCCC4)cc1OC, the Potency is reported as inconclusive: 6.31 µM [activator, full curve, poor fit]. With Cc1ccccc1NC(=O)c1ccc(F)c(S(=O)(=O)N(C)C2CCCCC2)c1 the max response, negative = inhibition was inactive: 11.1%. O=C1C2=C(Nc3ccccc3SC2c2ccccc2C(F)(F)F)c2ccccc21 (centres undefined) was tested, and the Potency was inconclusive: 39.8 µM [inhibitor, single point]. For COc1ccccc1NC(=O)c1cc2c([nH]c1=O)CC(C)(C)CC2=O, the max response, negative = inhibition was inactive: -6.23%. In the case of CCCCC(=O)Cl, the max response, negative = inhibition is reported as inactive: -6.2%. Cc1cc(NC(=O)COC(=O)c2c(C)nn(Cc3ccccc3Cl)c2Cl)no1 was tested, and the Potency was inconclusive: 39.8 µM [inhibitor, single point]. Cc1[nH]c(=S)c(C#N)c(C)c1C(=O)Nc1ccccc1 was tested, and the max response, negative = inhibition was inactive: -5.78%. In the case of Cc1c(/C=N/NC(=O)CNc2ccccc2)c2ccccn2c1C(=O)c1ccccc1, the Potency is reported as inconclusive: 25.1 µM [inhibitor, single point]. CCOc1ccccc1NC(=O)C1CCN(S(=O)(=O)c2ccc3[nH]c4c(c3c2)CCCCC4)CC1 was tested, and the Potency was active: 12.6 µM. In the case of NCc1ccc(C(=O)O)cc1, the max response, negative = inhibition is reported as inactive: 1.76%. For CC(C)NC(=O)NC(=O)CSc1ccccc1F, the max response, negative = inhibition was inactive: -6.36%. In the case of CCn1c(=O)n(CC)c2cc(S(=O)(=O)N3CCc4ccccc43)ccc21, the Potency is reported as inconclusive: 39.8 µM [activator, single point]. COC(=O)[C@@]1(Cc2ccc(OC)cc2)[C@H]2c3cc(C(=O)N(C)C)n(Cc4cccc5ccccc45)c3C[C@H]2CN1C(=O)c1ccccc1 was tested, and the Potency was inconclusive: 25.1 µM [activator, single point]. CC(=O)NS(=O)(=O)c1ccc(NC(=O)c2ccc3c(c2)C(=O)N(CCC(C)C)C3=O)cc1 was tested, and the Potency was inconclusive: 39.8 µM [activator, single point]. NC(=O)[C@@H]1CCOc2c(I)cc([N+](=O)[O-])cc2C(=O)N[C@@H](CO)C(=O)NCC(=O)N1 was tested, and the Potency was inconclusive: 39.8 µM [activator, single point]. CN(C)CCCNS(=O)(=O)c1ccc(N2CCC(c3ccc(Cl)cc3)=N2)cc1 was tested, and the Potency was inconclusive: 31.6 µM [inhibitor, single point]. CCOC(=O)c1[nH]c2ccccc2c1NC(=O)c1ccc(S(=O)(=O)N2CCOCC2)cc1 was tested, and the Potency was inconclusive: 31.6 µM [activator, single point]. With COc1cc2[nH]c(=O)n(CCCCCC(=O)N3CCN(c4ccccc4)CC3)c(=O)c2cc1OC the Potency was inconclusive: 31.6 µM [activator, single point]. In the case of O=C(Nc1cnn(C23CC4CC(CC(C4)C2)C3)c1)c1cnn2c(C(F)(F)F)cc(-c3ccco3)nc12, the Potency is reported as inconclusive: 7.94 µM [activator, single point]. With O=C(Nc1nnc(C2CC2)s1)c1ccc(Cl)c(S(=O)(=O)N2CCc3ccccc3C2)c1 the Potency was active: 25.1 µM. In the case of COc1ccc(-c2cc(=O)oc3cc(OC(=O)C4CCCCC4)c(Cl)cc23)cc1, the Potency is reported as active: 6.31 µM. With C[C@H]1O[C@@H](O[C@H]2[C@@H](O)C[C@H](O[C@H]3[C@@H](O)C[C@H](O[C@H]4CC[C@@]5(C)[C@H](CC[C@@H]6[C@@H]5CC[C@]5(C)[C@@H](C7=CC(=O)OC7)CC[C@]65O)C4)O[C@@H]3C)O[C@@H]2C)C[C@H](O)[C@@H]1O the Potency was inconclusive: 3.98 µM [activator, full curve]. For CCC1CCCCN1CCCNC(=O)c1cn(CC(C)C)c(=O)c2cc(OC)c(OC)cc12 (centres undefined), the Potency was inconclusive: 1.26 µM [inhibitor, single point]. Cc1cc(C)c(NC(=O)/C(=C/c2ccco2)c2ccccc2)c(C)c1 was tested, and the Potency was inconclusive: 25.1 µM [inhibitor, single point]. For CC1CCN(S(=O)(=O)c2ccc3nc(Nc4ccc(C#N)cc4)ccc3c2)CC1, the Potency was active: 31.6 µM. In the case of O=C(Oc1oc(-c2ccco2)nc1C=Nc1ccccc1)c1ccoc1, the Potency is reported as inconclusive: 6.31 µM [inhibitor, partial curve]. For CCOC(=O)c1c(Nc2cc(C)cc(C)c2)nnc(-c2ccccc2)c1-c1ccccc1, the Potency was inconclusive: 31.6 µM [inhibitor, single point]. In the case of CSc1ccc(CNC(=O)c2cc3cc(S(=O)(=O)N4CCCCC4)ccc3n2C)cc1, the Potency is reported as inconclusive: 39.8 µM [inhibitor, single point]. For COc1ccc(Cn2ccc3nc(C)c(C(=O)Nc4ccc(OC(F)(F)F)cc4)cc3c2=O)cc1, the Potency was inconclusive: 15.8 µM [activator, partial curve]. In the case of COC(=O)c1ccc2c(c1)N(CC(=O)Nc1cccc(Cl)c1C)C(=O)c1ccccc1S2, the max response, negative = inhibition is reported as inactive: 10.1%. C/C(=N\NC(=O)c1ccc(C)cc1C)c1ccc2c(c1)Nc1ccccc1S2 was tested, and the Potency was inconclusive: 39.8 µM [inhibitor, single point]. For CCOc1ccc(CN2C(=O)c3ccccc3Sc3ccc(C(=O)NC)cc32)cc1, the Potency was inconclusive: 39.8 µM [activator, single point]. CCc1ccc(NC(=O)c2ccc(C3SCC(=O)N3CCc3ccccc3)cc2)cc1 (centres undefined) was tested, and the Potency was inconclusive: 39.8 µM [inhibitor, single point]. In the case of Cc1c(CNC(=O)c2cnn3c2NC(c2ccccc2)CC3C(F)(F)F)cnn1C (centres undefined), the Potency is reported as inconclusive: 25.1 µM [activator, partial curve]. With COc1cc(NC(=O)C2CCN(S(=O)(=O)c3ccc4c(c3)oc(=O)n4C)CC2)cc(OC)c1 the Potency was inconclusive: 39.8 µM [activator, single point]. For CCc1ccc(OCC(=O)N/N=C/c2cc([N+](=O)[O-])ccc2N2CCCCCC2)cc1, the Potency was inconclusive: 39.8 µM [inhibitor, single point].
